Measurements published in patent US4857508A, “Novel platelet-aggregation inhibitor peptide derivatives” (Monsanto Company, priority 1987, dated 1989).
“Also recorded” adds a separate entry of the source. Not every detail of the peptide structures is certain; ends, links or a residue may be inferred. Residues, ends and D or L forms follow the SMILES beside them.

Legend:
[1] = test system: collagen induced thrombocytopenia (platelet aggregation); test: In vivo rat thrombocytopenia (collagen induced); conditions: for % Inhibition at 1 mg/kg / Maximum Inhibition %: rat, i.v. infusion; for % Inhibition at 1 mg/kg: collagen 60 μg/kg; for Maximum Inhibition %: collagen induced thrombocytopenia; for effectiveness in the in vivo platelet aggregation assay: statement in words
Protocol: In yet another test, the effect of the peptide on collagen induced thrombocytopenia (platelet aggregation) is measured in vivo in the art. Again, the % inhibition is determined for the test peptide and compared against a saline or ethanol vehicle in the absence of peptide.
Male rats (Charles River, CRL:CD(SD), 400-450 g) were used. The rats were anesthetized with Na pentabarbital (65 mg/kg, Vet Labs, Limited, Inc., Lenexa, KA). Two incisions were made to expose both jugular veins. Using an infusion pump (Harvard Apparatus, South Natick, Mass.) and a 5 cc syringe with a 19 g. butterfly, the test compound or vehicle was infused into the left jugular vein at a rate of 0.39 ml/min for 3 min. After 2 min of compound/vehicle infusion, collagen (60 μg/kg) (Helena Laboratories,Beaumont, TX) was injected with a 1 ml syringe into the right jugular vein. The body cavity was opened and the vena cava was exposed for blood sampling. One min after the collagen injection, compound infusion was stopped and blood was sampled from the vena cava (within 30 sec) with a 3 cc syringe containing […] of 4.5% EDTA/Tris (0.1M) (pH 7.35) plus 150 μM indomethacin. Platelet rich plasma (PRP) was prepared by centrifuging the blood at 126× g for 10 min. Five μl of PRP was counted in 20 ml of Isoton® III in a Coulter Counter. Percent inhibition of collagen induced aggregation was calculated by comparison of the number of platelets counted in treated animals with numbers for animals receiving no collagen and with counts from animals receiving vehicle and collagen. Estimation of potency was based on inhibition of collagen-induced thrombocytopenia.
Four animals were tested with each compound to give the data shown.

[2] = target: human platelets in platelet-rich plasma (Homo sapiens, UniProt P05106+P08514); test: In-vitro human platelet aggregation in platelet-rich plasma (PRP), ADP-induced; type: cell-based; conditions: platelet-rich plasma assay, statement in words
Chain of human platelets in platelet-rich plasma (P08514 32-1039): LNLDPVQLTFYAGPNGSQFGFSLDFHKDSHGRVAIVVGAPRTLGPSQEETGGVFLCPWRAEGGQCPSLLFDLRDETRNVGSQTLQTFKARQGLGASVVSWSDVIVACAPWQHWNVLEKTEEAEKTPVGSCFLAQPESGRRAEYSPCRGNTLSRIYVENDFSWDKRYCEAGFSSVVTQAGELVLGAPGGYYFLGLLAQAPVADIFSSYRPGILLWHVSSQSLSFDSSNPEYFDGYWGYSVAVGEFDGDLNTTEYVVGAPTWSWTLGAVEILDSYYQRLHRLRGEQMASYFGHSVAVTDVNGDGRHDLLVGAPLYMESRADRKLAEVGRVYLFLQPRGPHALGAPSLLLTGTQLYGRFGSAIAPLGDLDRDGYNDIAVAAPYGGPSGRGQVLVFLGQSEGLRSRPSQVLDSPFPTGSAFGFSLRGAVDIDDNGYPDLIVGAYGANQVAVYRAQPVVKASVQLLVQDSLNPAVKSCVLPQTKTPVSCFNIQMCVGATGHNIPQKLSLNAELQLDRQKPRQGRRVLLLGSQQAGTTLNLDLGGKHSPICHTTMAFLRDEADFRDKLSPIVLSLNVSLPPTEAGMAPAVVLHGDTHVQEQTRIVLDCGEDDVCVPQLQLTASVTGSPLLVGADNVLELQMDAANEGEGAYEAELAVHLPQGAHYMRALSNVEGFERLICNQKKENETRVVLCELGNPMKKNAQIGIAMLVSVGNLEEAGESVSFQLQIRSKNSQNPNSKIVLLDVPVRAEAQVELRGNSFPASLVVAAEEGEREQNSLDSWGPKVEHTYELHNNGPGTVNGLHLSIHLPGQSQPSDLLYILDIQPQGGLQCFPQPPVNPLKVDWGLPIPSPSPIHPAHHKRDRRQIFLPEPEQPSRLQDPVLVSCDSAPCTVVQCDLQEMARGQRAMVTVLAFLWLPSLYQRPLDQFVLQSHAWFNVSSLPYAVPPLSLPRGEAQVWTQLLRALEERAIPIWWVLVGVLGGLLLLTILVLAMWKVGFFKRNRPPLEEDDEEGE
Chain of human platelets in platelet-rich plasma (P05106 27-788): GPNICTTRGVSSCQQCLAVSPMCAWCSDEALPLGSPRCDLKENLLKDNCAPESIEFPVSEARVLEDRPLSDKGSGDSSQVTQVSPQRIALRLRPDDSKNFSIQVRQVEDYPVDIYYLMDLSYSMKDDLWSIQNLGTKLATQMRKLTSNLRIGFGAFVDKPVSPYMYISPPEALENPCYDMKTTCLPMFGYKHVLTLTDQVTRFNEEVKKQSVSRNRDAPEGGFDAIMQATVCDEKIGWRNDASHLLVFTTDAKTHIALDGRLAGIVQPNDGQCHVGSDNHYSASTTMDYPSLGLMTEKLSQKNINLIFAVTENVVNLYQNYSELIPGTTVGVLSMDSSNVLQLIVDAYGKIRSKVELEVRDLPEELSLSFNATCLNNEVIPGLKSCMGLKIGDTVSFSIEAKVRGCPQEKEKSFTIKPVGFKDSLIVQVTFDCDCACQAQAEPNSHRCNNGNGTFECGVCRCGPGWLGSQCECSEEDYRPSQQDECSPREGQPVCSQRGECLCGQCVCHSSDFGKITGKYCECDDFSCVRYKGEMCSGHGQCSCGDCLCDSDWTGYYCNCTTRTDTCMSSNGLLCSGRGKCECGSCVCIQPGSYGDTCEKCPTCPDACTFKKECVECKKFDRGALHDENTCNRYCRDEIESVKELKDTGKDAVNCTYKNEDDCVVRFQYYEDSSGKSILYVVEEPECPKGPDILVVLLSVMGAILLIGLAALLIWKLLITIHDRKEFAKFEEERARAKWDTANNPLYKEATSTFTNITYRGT
Protocol: In another assay, platelet aggregation is examined in platelet-rich plasma which also is rich in fibrinogen and other plasma proteins.
The syringe is rotated carefully as blood is being drawn to mix the citrate. Platelet-rich plasma (PRP) is prepared by centrifugation at 100×g for 10 minutes at room temperature, allowing the centrifuge to coast to a stop without braking. The PRP is removed from the blood with a plastic pipette and placed in a plastic, capped, 50 ml Corning conical sterile centrifuge tube. The tube is capped and placed at room temperature. Platelet poor plasma (PPP) is prepared by centrifuging the remaining blood at 2000×g for 15 minutes at room temperature allowing the centrifuge to coast to a stop without braking. The PRP is adjusted with PPP to a count of 2-3×10^8 platelets per ml. 400 μl of the PRP preparation and 50 μl of the compound to be tested or saline were preincubated for 1 minute at 37° C. in a Payton aggregometer (Payton Scientific, Inc., Buffalo, NY). 50 μl of adenosine 5'diphosphate (ADP) (50 μM) is added to the cuvettes and the aggregation is monitored for 1 minute. All compounds are tested in duplicate. The entire procedure is run within 3 hours, since this is the maximal viability of the platelets. The saline instead of compound is used to determine the maximal aggregation.

[3] = test system: rat carotid artery thrombosis; test: Rat carotid artery thrombosis; type: in vivo; conditions: for effect on thrombosis / occlusion in rat carotid artery: infusion, statement in words; for Time to Occlusion: rat

Compound | % Inhibition at 1 mg/kg [1] | Maximum Inhibition % [1] | further results
N=C(N)NCCC[C@H](NC(=O)CN)C(=O)NCC(=O)N[C@@H](CC(=O)O)C(=O)N[C@@H](CO)C(=O)N1CCC[C@H]1C(N)=O [GRGDSP--NH2, reference compound] | 18 ± 3% | 20% | 
COc1cc(C)c(CC(NC(=O)[C@H](CC(=O)O)NC(=O)CNC(=O)[C@@H](N)CCCNC(=N)N)C(N)=O)c(C)c1 (stereo partly drawn) [RGD(2,6-dimethyl-O--methyl-Tyr)--NH2, Arg-Gly-Asp-(2,6-dimethyl-O-methyltyrosine)amide] | 70% |  | 
COc1ccc(C[C@H](NC(=O)[C@H](CC(=O)O)NC(=O)CNC(=O)[C@@H](N)CCCNC(=N)N)C(N)=O)cc1 [RGD(O--methyl-Tyr)--NH2, Arg-Gly-Asp-(O-methyltyrosine)-amide] (H-RGDY(Me)-NH2) | 75 ± 4% | 80% | effectiveness in the in vivo platelet aggregation assay [1]: substantially more active; activity as inhibitor of platelet aggregation in platelet-rich plasma in vitro [2]: substantially more active; effect on thrombosis / occlusion in rat carotid artery [3]: effective in preventing thrombosis; also recorded: significantly delayed or prevented occlusion
N=C(N)NCCC[C@H](N)C(=O)NCC(=O)N[C@@H](CC(=O)O)C(=O)N[C@@H](Cc1ccccc1)C(N)=O [RGDF--NH2, reference compound] (H-RGDF-NH2) | 40% |  | effectiveness in the in vivo platelet aggregation assay ([1]; listed as 4): intermediate effectiveness; activity as inhibitor of platelet aggregation in platelet-rich plasma in vitro [2]: effective
N=C(N)NCCC[C@H](N)C(=O)NCC(=O)N[C@@H](CC(=O)O)C(=O)N[C@@H](CO)C(=O)O [RGDS, Arg-Gly-Asp-Ser] | 29 ± 6% | 30% | effectiveness in the in vivo platelet aggregation assay [1]: relatively ineffective; effect on thrombosis / occlusion in rat carotid artery [3]: lengthened the time to occlusion only slightly; Time to Occlusion ([3]; i.v. infusion 0.05 mg/kg/min.): 13 ± 1 min; Time to Occlusion ([3]; i.v. infusion 1.0 mg/kg/min.): 12 ± 2 min
COc1ccc(C[C@H](NC(=O)[C@H](CC(=O)O)NC(=O)CNC(=O)CCCCNC(=N)N)C(N)=O)cc1 [des-NH2 --RGD(O--methyl-Tyr)--NH2, des-amino-Arg-Gly-Asp-(O-methyltyrosine)-amide] | 64% |  | 
COc1ccc(C[C@H](NC(=O)[C@H](CC(=O)O)NC(=O)CNC(=O)CCCCCNC(=N)N)C(N)=O)cc1 [des-amino-(homoarginine)-Gly-Asp-(O-methyltyrosine)-amide] | 60% |  | 
